Results taken from PubChem BioAssay AID493208 (National Center for Advancing Translational Sciences (NCATS), 2011).
Out of some 44,000 compounds screened, about 340 (0.77%) were called active. Another 5% or so got no clear call; they are omitted. The call rests on the fitted dose curve; in most records, active means well fitted inhibition curve with a large enough effect; inconclusive means small, poorly fitted or top-dose-only effect; inactive means flat fitted curve, though single readings scatter. This is one part of the list.

Assay: Acumen qHTS Assay for Inhibitors of the mTORC1 Signaling Pathway in MEF (Tsc2-/-, p53-/-) Cells: Sytravon;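 further: plate controls were DMSO for no effect and rapamycin for full effect; nearly all actives have a fitted effect of over 50% in size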
Conditions: phospho-rpS6 immunofluorescence/PI, 24 h; series mostly up to 38.3 µM; activity change, negative = inhibition: at the top concentration
Procedure, shortened: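 Cell-based qHTS: Tsc2-/- p53-/- MEF, 24 h cpd, 37 °C; fix/perm, anti-phospho-S6 Alexa-488 + PI; Acumen 488 nm scan; pS6/PI ratio, % positive cells; rapamycin 7.5 nM = inhibition ref; PI count = viability.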

Activity change, negative = inhibition, inactive:
CCOC(=O)c1noc2ncn(CC(=O)O)c(=O)c12 -13.1%, O=C(NCCC1=CCCCC1)c1ccc2c(c1)N(Cc1ccccc1)C(=O)c1ccccc1S2(=O)=O -16.8%, O=C(Cn1cc(SCc2ccccc2Cl)c2ccccc21)N1CCCCCC1 -4.64%, COc1ccc(OC)c(CNS(=O)(=O)c2ccc(-c3cc(C(F)(F)F)on3)s2)c1 -26.8%, Cc1ccc(N2CCN(C(=O)c3nn(C)c4c3CSc3ccccc3-4)CC2C)cc1 (stereo not drawn) 0.712%, Cc1ccc(CNC(=O)CN(c2cc(C)cc(C)c2)S(=O)(=O)c2c(C)[nH]c(=O)[nH]c2=O)cc1 -22.2%, CCc1ccc(C2c3c(n[nH]c3C)C(=O)N2c2ccc(C)cc2)cc1 (stereo not drawn) -4.84%, CCc1cccc(NC(=O)CCS(=O)(=O)c2ccc(C)cc2)c1 1.88%, CCOc1ccc(-c2ccc(CO)o2)cc1N 0.607%, O=C(NC1CCCC1)c1ccc2c(c1)N(Cc1ccc(F)cc1)C(=O)c1ccccc1S2 -12.6%, COc1ccc(NC(=O)C(Cc2ccccc2)n2cccc2)c(OC)c1 (stereo not drawn) 1.47%, CC(C)CCNC(=O)CSc1nc2ccsc2c(=O)n1Cc1ccccc1Cl -1.88%, COc1ccc(-c2noc(-c3ccccc3NC(=O)c3cc(OC)c(OC)c(OC)c3)n2)cc1 1.27%, O=S(=O)(Nc1nc2n(n1)C(c1ccccc1)C=C(c1ccc(Cl)cc1)N2)c1ccccc1 (stereo not drawn) -1.25%, O=C(NCc1ccc(Cl)cc1)C1CCCN(c2ncnc3onc(-c4ccc(F)cc4)c23)C1 (stereo not drawn) 6.61%, Cc1cccc(NC(=O)c2c(Br)sc3c2CCCC3)c1 -0.168%, COc1ccc(Nc2nnc(-c3ccc(C)c(S(=O)(=O)N4CCOCC4)c3)c3ccccc23)cc1 12.3%, COc1ccccc1N1CCN(C(=O)CSc2nc(-c3ccc(C(C)C)cc3)no2)CC1 0%, O=C(COc1ccccc1F)Nc1nnc(S(=O)(=O)N2CCCCCC2)s1 0%, CCOc1cc(C2c3c(oc4ccc(F)cc4c3=O)C(=O)N2Cc2ccc(C)cc2)ccc1O (stereo not drawn) -6.1%, CCCCNC(=O)CSc1nc2n[nH]c(C)c2c(=N)n1-c1ccccc1CC -8.15%, COc1ccc(C2CC(=O)c3c([nH]c(C(=O)OCc4ccccc4)c3C)C2)cc1OC (stereo not drawn) -18.6%, CCC1CN(C(=O)Nc2cccc3c2CCCC3)c2cc(C)ccc2O1 (stereo not drawn) 2.56%, CCOC(=O)c1c(C)oc2nc(C)nc(NCCCN3CCN(c4cccc(C)c4)C(C)C3)c12 (stereo not drawn) -13.3%, Cc1ccccc1Cc1c(C)nc2nc(SCC(=O)NC(C)c3ccccc3)nn2c1C (stereo not drawn) 0%, COc1ccccc1N(CC(=O)NCCSCc1ccccc1)S(C)(=O)=O 7.5%, CCCCc1nn2c(=O)cc(COC(=O)c3cccc(OC)c3)nc2s1 0%, COc1ccc2c(c1)cc1c(=O)n(CC(=O)NCc3ccco3)nc(C)n12 0.468%, COc1ccc(-c2cc(C(F)(F)F)nc(SCC(=O)NCc3ccc(OC)c(OC)c3)n2)cc1 -0.482%, CCc1nnc2c(Nc3cccc(C(C)=O)c3)nc3ccccc3n12 0.619%, CCOc1ccc(C(=O)NCc2ccc3c(c2)CCN3C(=O)c2ccccc2)cc1 -7.47%, COc1ccc(-c2onc(C)c2C)cc1S(=O)(=O)NCc1ccco1 0%, CCc1ccc(CNC(=O)c2ccc3c(c2)nc2n3CCC(C)C2)cc1 (stereo not drawn) -13.8%, CCCCc1nn2c(=O)cc(COC(=O)COc3ccc(C)cc3)nc2s1 -7.63%, COc1ccc(C)cc1NC(=O)CN(c1ccccc1)S(=O)(=O)N(C)C -5.52%, CCOC(=O)CN1C(=O)c2ccccc2Sc2ncccc21 -0.828%, COc1ccc(NC(=O)CN2C(=O)COc3ccc(S(=O)(=O)Nc4ccccc4)cc32)cc1 -2.06%, CCC12CN3CC(C)(CN(C1)C3c1c[nH]c3ccccc13)C2=O (stereo not drawn) -7.04%, COc1ccc(/C=C\c2onc(C)c2S(=O)(=O)N2CCC(C(=O)Nc3ccc(C)cc3C)CC2)cc1 1.36%, CCc1ccc(NC(=O)CSC2=Nc3ccccc3C3=NC(CCC(=O)NCCc4ccccc4)C(=O)N23)cc1 (stereo not drawn) -0.155%, CC1=C(C(=O)Nc2ccc(C)cc2C)C(c2ccc(O)cc2)n2nnnc2N1 (stereo not drawn) 6%, O=C(Nc1ccc(F)cc1Cl)n1ncc2cc(Cl)ccc21 -2.77%, CCC(=O)N1CCc2cc(S(=O)(=O)NC(CC(C)C)C(=O)Nc3cc(C)ccc3OC)ccc21 (stereo not drawn) -15.1%, CCCOc1ccc(C(=O)Nc2cccc(NC(=O)c3cccc(Cl)c3)c2)cc1 27.5%, CCS(=O)(=O)c1ncc(N(Cc2ccco2)Cc2sccc2C)c(C(=O)Nc2ccc(C)cc2C)n1 -0.735%, CC(=O)c1cccc(Nc2ccc3cc(S(=O)(=O)N4CCC(C)CC4)ccc3n2)c1 2.27%, O=C(COc1ccccc1-c1nnc(-c2ccccc2)o1)Nc1ccc(Br)cc1F 0.181%, CCC(=O)N1CCc2cc(S(=O)(=O)NCCC(=O)Nc3ccc(C)cc3)ccc21 1.6%, CCCNC(=O)CCNS(=O)(=O)c1ccc2c(c1)c(=O)n(C)c(=O)n2C -3.15%, CC(=O)c1ccc(NS(=O)(=O)c2cc(-c3cc(C)no3)ccc2C)cc1 -13.5%, CC(C)c1ccc(-c2nnc3n(CCc4ccccc4)c(=O)c4ccccc4n23)cc1 -10.7%, Cc1ccc(CNC(=O)CCc2c(C)nc3nc(CNC(=O)OC(C)(C)C)nn3c2C)cc1 0.589%, Cc1cccc(NCc2nc3ccccc3n2CCOc2ccccc2C)c1 -9.13%, COc1ccc(NC(=O)c2c(C)oc3ccc(O)c(CN4CCCC4)c23)cc1Cl 2.78%, COc1cc(C(=O)n2nc(-c3ccco3)nc2NCc2ccc(Cl)cc2)cc(OC)c1OC -2.55%, COc1ccc(C(=O)NCC(c2ccc(N(C)C)cc2)N2CCCC2)c(OC)c1 (stereo not drawn) 1.74%, Cc1cccc(-c2nc(CSc3nncn4c3cc3oc(C)cc34)c(C)o2)c1 -6.55%, COc1ccccc1OCC(=O)Nc1nc2c(s1)CC(C)CC2 (stereo not drawn) -17.8%, Cc1ccc2nc(-c3ccc(Cl)cc3)cc(C(=O)OCC(=O)c3ccccc3)c2c1 2.21%, CCSc1ncc(Cl)c(C(=O)Nc2c(C(=O)Nc3cccc(C)c3)oc3ccccc23)n1 -3.41%, COc1ccc(C(=O)NCCc2sc(-c3ccc(F)cc3)nc2C)cc1OC 0%, CC1CCC(NC(=O)C2(C)Cc3ccccc3C(=O)N2Cc2ccc(F)cc2)CC1 (stereo not drawn) 0.907%, CCC(C(=O)NC1CCCCC1)n1c(SCc2ccc(F)cc2)nc2ccncc21 (stereo not drawn) -2.4%, CCC(Cn1nnc2ccccc2c1=O)NC(=O)Nc1ccc(C)cc1C (stereo not drawn) -5.79%, CCOc1ccccc1C(=O)NCc1ccc2c(c1)CCN2C(C)=O -3.97%, Cc1ccc(C2c3[nH]c4ccccc4c3CCN2C(=O)Nc2ccc(C)c(C)c2)cc1 (stereo not drawn) 4.78%, Cc1ccc(S(=O)(=O)Nc2cccc(-c3ccc(N4CCCCC4)nn3)c2)s1 2.86%, CCOC(=O)C(C)Sc1nnc2ccc3ccccc3n12 (stereo not drawn) -0.153%, Cc1ccc(NC(=O)C(=O)NCc2ccc(Cl)cc2)cc1 -3.54%, O=C(NCCc1ccc(Cl)cc1)c1ccc(CSCc2ccccc2Cl)o1 5.35%, CC(=O)c1cccc(NC(=O)c2nc(-c3ccc(C)cc3)n3c2CCCCC3)c1 -9.35%, Cc1cccc(NC(=O)C2CCCN(S(=O)(=O)c3cccc4nonc34)C2)c1 (stereo not drawn) 0.24%, COc1ccc(C2(CNC(=O)C(=O)Nc3cccc(C(F)(F)F)c3)CCCC2)cc1OC -5.55%, COc1cc(OC)c(NC(=O)CCn2cnc3onc(-c4ccc(F)cc4)c3c2=O)cc1Cl 8.26%, CCOc1ccc(NC(=O)N(Cc2c[nH]c3ccccc23)C2CCCCC2)cc1 1%, Cc1ccc(CNCc2c(C(=O)O)n(Cc3ccccc3C)c3cc(C)ccc23)cc1 -6.57%, CCCCNC(=O)c1[nH]c2ccccc2c1Sc1ccc(C)cc1 -0.463%, Cc1oc(-c2ccc(C(=O)NCc3ccc(N(C)C)cc3)cc2)nc1COc1ccccc1 0.249%, CC(NC(=O)CN(C)S(=O)(=O)c1ccc2c(c1)c(=O)n(C)c(=O)n2C)c1ccccc1 (stereo not drawn) -2.5%, Cc1cc2c(=O)c(C(=O)c3ccncc3)cn(CC(=O)Nc3cccc(C)c3C)c2cc1C 0.702%, Cc1ccc2c(c1)c(=O)c(C(=O)c1ccncc1)cn2CC(=O)Nc1c(C)cccc1C 1.14%, Cn1cc(S(=O)(=O)N2CCCCC2)cc1C(=O)N1CCN(c2ccc(F)cc2)CC1 0.618%, Cc1cc(=O)n(CC(=O)NCCC(C)C)c2c1c(C)nn2C 9.13%, Cc1ccc(C)c(S(=O)(=O)c2cnc(SCC(=O)Nc3ccc(F)cc3F)[nH]c2=O)c1 -0.318%, CCc1ccc(NC(=O)CSc2nccn2C2CCCC2)cc1 -16.3%, Cc1ccc(C)c(-c2csc(-c3c(N)c(C(=O)c4ccc5c(c4)OCO5)n4ccccc34)n2)c1 0.348%, CCN(CC)CCNC(=O)C1CCCN(c2ncnc3onc(C)c23)C1 (stereo not drawn) -6.78%, Cc1c(C(N)=O)nnn1-c1ccc(Br)cc1 -9.79%, COc1ccc(CCNC(=O)Cn2ncc3c(C)n(Cc4ccccc4F)c(C)c3c2=O)cc1OC -0.365%, COc1ccc(CCNC(=O)Cn2nc(C)n3c(cc4occc43)c2=O)cc1OC -17.6%, CCOC(=O)c1c(S(=O)(=O)N2CCCC(C(=O)N3CCN(c4ccc(F)cc4)CC3)C2)c(C)n(C)c1C (stereo not drawn) -5.06%, Cc1ccc2nc(N(Cc3cccnc3)C(=O)C3CCCCC3)sc2c1 1.34%, CCn1cc(C(=O)OCC(=O)Nc2cc(Cl)ccc2OC)c(=O)c2ccc(C)nc21 -4.47%, COc1ccc(NC(c2ccc(F)cc2)c2nnc(-c3ccccc3Cl)o2)cc1Cl (stereo not drawn) -28.4%, CCc1ccc2nc(N3CCC(C(=O)O)CC3)sc2c1 -1.46%, COc1cc(CNCc2c(C(=O)O)c(C)n(Cc3cccc(Cl)c3)c2C)cc(OC)c1OC -6.61%, COc1ccc(Br)cc1CNC(=O)C(C)n1nc(C)n2c(cc3occc32)c1=O (stereo not drawn) 1.98%, CCC(C(=O)N1CCN(c2cc(Cl)ccc2C)CC1)n1nc(C)n2c(cc3occc32)c1=O (stereo not drawn) -15.3%
